The structures appear in SMILES notation. Screen size: about 110,000 compounds; about 230 (0.21%) showed an effect of 50% or more. The list shows a part of the results.
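Note: 30 min substrate incubation versus DMSO and 10 µM JCP410 controls.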

In the test the target is DPAP1 (Plasmodium falciparum, UniProt Q8IIJ9). Briefly: primary screen, percent inhibition; read by cleavage of a fluorogenic dipeptide substrate; higher = more effect of the substance. Set-up: species or system P. falciparum D10 trophozoite lysates; single well.
Sequence of DPAP1 (Q8IIJ9 whole entry, looked up): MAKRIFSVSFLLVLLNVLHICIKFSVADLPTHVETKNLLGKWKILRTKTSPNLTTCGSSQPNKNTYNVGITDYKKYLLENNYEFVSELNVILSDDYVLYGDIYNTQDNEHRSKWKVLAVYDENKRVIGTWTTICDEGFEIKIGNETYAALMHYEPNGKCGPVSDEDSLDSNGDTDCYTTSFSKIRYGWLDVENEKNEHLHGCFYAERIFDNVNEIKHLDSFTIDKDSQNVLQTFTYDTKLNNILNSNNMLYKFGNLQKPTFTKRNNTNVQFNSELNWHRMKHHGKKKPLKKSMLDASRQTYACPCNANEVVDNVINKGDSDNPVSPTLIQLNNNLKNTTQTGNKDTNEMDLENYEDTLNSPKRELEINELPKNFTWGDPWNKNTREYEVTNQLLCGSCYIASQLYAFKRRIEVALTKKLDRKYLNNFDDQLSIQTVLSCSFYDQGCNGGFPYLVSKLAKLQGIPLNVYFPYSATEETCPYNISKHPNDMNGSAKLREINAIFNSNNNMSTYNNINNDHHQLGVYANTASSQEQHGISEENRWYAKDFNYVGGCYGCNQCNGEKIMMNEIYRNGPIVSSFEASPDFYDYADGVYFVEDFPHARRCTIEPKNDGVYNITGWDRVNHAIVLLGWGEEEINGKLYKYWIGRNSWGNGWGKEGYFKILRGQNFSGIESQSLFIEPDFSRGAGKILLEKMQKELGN
On to `CC1CCc2c(sc(NC(=O)C3CC4CCC3C4)c2C#N)C1` (stereo not drawn), for which the “% Inhibition @ 10 uM” value was found to be 2.78%.

`CCOc1ccc(C(=O)C2=C(O)C(=O)N(CCCN(C)C)C2c2ccc(OC)c(OC)c2)cc1C` (stereo not drawn): the “% Inhibition @ 10 uM” value is on record as -5.63%. On to `Cc1ccc(/N=C2\S/C(=C/c3ccc(C(=O)O)cc3)C(=O)N2C)cc1`, for which the “% Inhibition @ 10 uM” value is -2.44%. As for `O=C(Cn1ncc2c3ccccc3nc-2c1O)NCCc1ccsc1`, the “% Inhibition @ 10 uM” value turned out to be 0.244%. Consider `Cc1ccc(-n2cnc3cc(C(=O)NC4CCCC4)ccc32)c(C)c1`, for which the “% Inhibition @ 10 uM” value is -1.99%. In the case of `CCOC(=O)N1CCN(C(=O)C2CCN(c3nc4c(C)cc(C)cc4s3)CC2)CC1`, the “% Inhibition @ 10 uM” value is given as -1.6%. Take `O=C(/C(=C/c1ccco1)c1nc2ccccc2[nH]1)c1ccccc1`: the “% Inhibition @ 10 uM” value is -5.28%.

Regarding `CC(=O)N1CCC2(CC1)OC(=O)C(C)=C2C(=O)N1CCC(C)CC1`, the “% Inhibition @ 10 uM” value was -2.69%.

For the molecule `Cc1ccc(NC(=O)Nc2cccc3ccccc23)cc1Cl`, the “% Inhibition @ 10 uM” value is on record as -4.01%.

For `CC1(c2ccccc2)COC2(OC1)C(=O)N(CN1CCCCC1)c1ccccc12` (stereo not drawn), the “% Inhibition @ 10 uM” value was -3.19%. As for `O=C(O)/C(O)=C/C(=O)c1ccc(Cl)cc1`, the “% Inhibition @ 10 uM” value is listed as 3.24%. Regarding `Cc1ccc(NC(=O)CN(Cc2ccccc2)S(=O)(=O)c2ccccc2)c(C)c1`, the “% Inhibition @ 10 uM” value was -4.01%. Regarding `Cc1cc(C(=O)NC(C)C)c2c(C)nn(-c3ccccc3Cl)c2n1`, the “% Inhibition @ 10 uM” value is -1.3%. On to `Cc1ccc(S(=O)(=O)/N=C(\N)c2ccc(F)cc2)cc1`, for which the “% Inhibition @ 10 uM” value is reported as -0.836%. `Cc1ccc2sc(-c3ccc(NC(=O)C4CC4)cc3)nc2c1`: the “% Inhibition @ 10 uM” value was 4.75%. Then `O=C(CCc1nnc2n(Cc3ccccc3)c(=O)c3ccccc3n12)NCc1ccc2c(c1)OCO2`, with -0.692%; and `COc1ccc(C2CC(C(F)(F)F)n3ncc(C(N)=O)c3N2)cc1` (stereo not drawn), with 2.7%; and `COc1cc(CNc2ccc3[nH]c(O)nc3c2)cc(Cl)c1OCC(=O)NC(C)(C)C`, with -1.82%. As for `CNC(=O)Cn1ncc2c3ccccc3n(C)c2c1=O`, the “% Inhibition @ 10 uM” value is on record as -1.92%. `COC(=O)c1[nH]c2ccccc2c1S(=O)c1ccccc1` (stereo not drawn): the “% Inhibition @ 10 uM” value is -5.37%. The figure for `Cc1noc2ncnc(N(C)Cc3ccccc3)c12` is -7.73%; for `NC(=O)c1c(NC(=O)c2ccc(Br)o2)sc2c1CCCCC2` it is 5.42%.

Consider `Clc1ccc2oc(-c3ccccc3)c/c(=N\Cc3ccco3)c2c1`, for which the “% Inhibition @ 10 uM” value is recorded as -4.85%. Consider `O=C(CSc1c2c(nc3ccccc13)CCCC2)NCc1ccc(F)cc1`, for which the “% Inhibition @ 10 uM” value is -5.1%. On to `CCCNC(=O)N1CCN(c2nc3ccccc3s2)CC1`, for which the “% Inhibition @ 10 uM” value was -0.551%. As to `O=C(CCCn1sc2ccccc2c1=O)NC1CCN(Cc2ccccc2)CC1`, the “% Inhibition @ 10 uM” value was -6.59%. The figure for `CCCCn1c(Oc2ccc(F)cc2)nc2c1c(=O)n(C)c(=O)n2C` is 1.19%; for `CCOC(=O)N1CCN(C(=O)CSc2nnc(-c3ccc(C)c(C)c3)o2)CC1` it is 1.86%. Regarding `Cc1ccc(-c2nn(C)c(=O)c3ccccc23)cc1CNC(=O)c1cccs1`, the “% Inhibition @ 10 uM” value is recorded as 5.44%. As for `CCOc1ccccc1C1C(C(=O)OC)=CN(Cc2ccc(OC)c(OC)c2)C=C1C(=O)OC`, the “% Inhibition @ 10 uM” value came out at 3.45%. In the case of `CNCC(O)c1ccc2cc[nH]c2c1` (stereo not drawn), the “% Inhibition @ 10 uM” value is 4.93%. For `CCOc1ccc(C2(O)CSC3=C(C#N)C(c4cccc(Cl)c4)CC(=O)N32)cc1` (stereo not drawn), the “% Inhibition @ 10 uM” value was found to be 1.64%. For `CCOC(=O)c1[nH]c2c([N+](=O)[O-])cccc2c1CC`, the “% Inhibition @ 10 uM” value came to 2.65%. The figure for `O=C(O)C1C2CCC(C2)C1C(=O)Nc1ccc(Cl)c(Cl)c1` (stereo not drawn) is -0.0938%. The figure for `Cn1c2ccccc2n2nc(-c3ccccc3)nc12` is 8.75%; for `CCC(C)(C)c1ccc(OCC(=O)Nc2nccs2)cc1` it is -5.58%; for `COCCCn1c(=O)c2sccc2n2c(CCCC(=O)N3CCN(c4ccccn4)CC3)nnc12` it is -1.35%. Turning to `CC1CC(C)CN(C(=O)Cn2cnc3onc(-c4ccc(F)cc4)c3c2=O)C1` (stereo not drawn), the “% Inhibition @ 10 uM” value is -4.55%.

On to `c1ccc2oc(NC3=NCN(CC4CCCO4)CN3)nc2c1` (stereo not drawn), for which the “% Inhibition @ 10 uM” value is recorded as 0.032%. As to `COc1ccc(C(=O)Nc2ccc(Cl)cc2C(=O)N2CCCC(C)C2)cc1` (stereo not drawn), the “% Inhibition @ 10 uM” value was -3.1%. In the case of `Cc1cc2c(cc1C)C(c1cc3c(cc1Cl)OCO3)CC(=O)N2` (stereo not drawn), the “% Inhibition @ 10 uM” value is -1.02%. As to `COc1cccc(C(=O)Nc2c(-c3cccs3)nc3ccccn23)c1OC`, the “% Inhibition @ 10 uM” value is reported as 0.813%. For the molecule `CCN1CCN(C(=O)CNS(=O)(=O)c2ccc(Br)s2)CC1`, the “% Inhibition @ 10 uM” value was -0.601%. For `Oc1ccc(CN2CCN(c3cccc(Cl)c3)CC2)cc1`, the “% Inhibition @ 10 uM” value is given as -1.92%. Then `Cn1c2ccccc2c2cnn(CC(=O)N3CCOCC3)c(=O)c21`, with -5.49%; and `COc1cc(C2C(C(=O)c3ccc(C)cc3)=C(O)C(=O)N2c2cccnc2)ccc1O` (stereo not drawn), with 0.408%. `COc1ccc(CN2CCSCC2)cc1Br`: the “% Inhibition @ 10 uM” value is given as -5.68%. `Brc1ccc(NCc2ccccn2)cc1`: the “% Inhibition @ 10 uM” value is on record as -2.35%. Turning to `O=C(Nc1ccc(Cl)cn1)C1CCCN(c2ncnc3c2nc2n3CCCCC2)C1` (stereo not drawn), the “% Inhibition @ 10 uM” value turned out to be 0.00353%. For `COc1ccc(CC(=O)N2CCc3cc(OC)c(OC)cc3C2COc2ccccc2OC)cc1` (stereo not drawn), the “% Inhibition @ 10 uM” value came to 0.426%. As to `O=C(Cn1c(=O)n(Cc2ccco2)c(=O)c2sc3ccccc3c21)NCc1ccc(Cl)cc1`, the “% Inhibition @ 10 uM” value is -2.41%.

Values taken from PMC6919601, “Identification of Plasmodium dipeptidyl aminopeptidase allosteric inhibitors by high throughput screening” (PLoS ONE, 2019).
